The values that follow come from patent publication US20170174769A1.

The target of test [1] is mouse KLB and mouse FGFR1c co-expressed on HEK293/mKLB/mFGFR1c/SRE-Luc cells (mouse). Nature of the test: FACS on stable HEK293 cells, 67 nM.
The target is the same in test [2]. Kind of test: cell-based or functional assay.

B1: Fusion 3 (Homodimer) (Fc fusion)
chain: QVQLVESGGGVVQPGRSLRLSCVASGFTFSSYGMHWVRQAPGKGLEWVAVISFDGSNKYYADSVKGRFTISRDNSKNTLYLQMNSLRPADTAVYYCAKDRSNYYYFGMDVWGQGTTVTVSSGGGGSGGGGSGGGGSDIVMTQTPLSLPVTPGEPASISCRSSQSLLDSDDGNTYLDWYLQKPGQSPQLLIYTLSYRASGVPDRFSGSGSGTDFTLKISRVEAEDVGVYYCMQRIEFPLTFGGGTKVEIKGGGGSGGGGSGGGGS[human IgG4 Fc with S228P (EU numbers) not spelt out]GGGGSGGGGSGGGGSLLQFGGQVRQRYLYTDDAQQTEAHLEIREDGTVGGAADQSPESLLQLKALKPGVIQILGVKTSRFLCQRPDGALYGSLHFDPEACSFRELLLEDGYNVYQSEAHGLPLHLPGNKSPHRDPAPRGPARFLPLPGLPPAPPEPPGILAPQPPDVGSSDPLSMVGPSQGRSPSYAS
Consider B1, for which the MFI Ratio to unstained cells in test [1] worked out at 9 fold. In test [2], this molecule came in with an EC50, SRE-luc activation of 0.87 nM and a maximum activation relative to His6-hFGF21 of 44%.
